# Source: the BET-seq Pho4 binding data (Le et al. 2018)
# The other results are listed elsewhere or left out. Values were computed here from the reads of four pooled replicates and scatter widely.
# Biological target: T1, Pho4 (S. cerevisiae) (UniProt P07270)
# T1 sequence: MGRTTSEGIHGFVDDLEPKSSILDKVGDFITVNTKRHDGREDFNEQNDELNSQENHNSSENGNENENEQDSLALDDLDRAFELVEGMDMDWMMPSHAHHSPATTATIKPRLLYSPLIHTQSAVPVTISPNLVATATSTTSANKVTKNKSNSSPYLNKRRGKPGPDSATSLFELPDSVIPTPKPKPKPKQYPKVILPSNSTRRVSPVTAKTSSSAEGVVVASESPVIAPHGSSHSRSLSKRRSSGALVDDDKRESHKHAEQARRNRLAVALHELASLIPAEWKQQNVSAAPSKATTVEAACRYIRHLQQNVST
# Assay: relative binding free energy (BET-seq); higher = weaker binding
# Settings: reference: library average
row,Sequence,relative binding free energy [kcal/mol]
1,GGCCACACGTGGTGTG,-0.11
2,GATTTCACGTGAGGGT,0.42
3,TGTTTCACGTGGGAAA,0.18
4,ATAGTCACGTGTTAGA,0.01
5,TTTACCACGTGGGATG,-0.05
6,GTAGACACGTGGATTG,-0.02
7,TCGTTCACGTGGATTA,0.28
8,GGGAGCACGTGGTGCA,-0.1
9,ATAGTCACGTGTGTCG,0.07
10,TGAGGCACGTGATAAA,-0.04
11,GCGTACACGTGGTGAG,0.06
12,GTATACACGTGTGGTT,0.06
13,GGTCGCACGTGGGTCA,-0.03
14,GATTTCACGTGTCGTT,0.43
15,TCTCACACGTGATGGG,0.43
16,GCTCGCACGTGTTGGT,0.09
17,ATCGGCACGTGTCGTG,-0.1
18,ATGGTCACGTGGGTGA,0
19,ATTATCACGTGGTACG,-0.02
20,TAAGGCACGTGGAGCA,-0.02
21,CGTGGCACGTGGTCTG,-0.27
22,TGGACCACGTGAGAGG,0.27
23,GAAGGCACGTGAAGGC,0.3

row,Sequence,relative binding free energy [kcal/mol]
1,CAATGCACGTGTGAGT,0.06
2,TAGAGCACGTGGTACT,-0.1
3,TCTTACACGTGATATT,0.19
4,CGGGTCACGTGATTTA,0.39
5,GAGCACACGTGTTTGG,0.21
6,ATGGCCACGTGATAGT,0.06
7,GGTGACACGTGAAAGT,0.25
8,TTGGGCACGTGTGCGA,-0.14
9,AGGATCACGTGCATGG,0.19
10,GTGTTCACGTGCGTCG,0.17
11,TGGCGCACGTGTAATG,-0.06
12,CTTAGCACGTGTGATG,-0.06
13,TGGAGCACGTGTGGTA,-0.1
14,TGGTTCACGTGGATCG,0.28
15,AGGGGCACGTGTTGGA,-0.08
16,ATTTACACGTGAGTAT,0.32
17,GGTAGCACGTGTTATC,0.09
18,CGTTGCACGTGGATAG,-0.01
19,GTGCACACGTGAGCGG,0.26
20,TTGTGCACGTGTAGGA,0.05
21,GGGGGCACGTGGAAGC,-0.02
22,AGGGCCACGTGTGTCT,-0.01
23,TATAACACGTGATATG,0.12

row,Sequence,relative binding free energy [kcal/mol]
1,TAGGTCACGTGAGAAT,0.31
2,TGCGGCACGTGGGGGT,-0.15
3,TTTAGCACGTGAGTCA,0.02
4,AATTTCACGTGCGTGC,0.24
5,TCGATCACGTGTGGAG,0.25
6,TGTGTCACGTGAGTGT,0.28
7,TTCGACACGTGTTTGG,0.02
8,GACGTCACGTGGAAGG,0.16
9,CGGGTCACGTGACATG,0.34
10,GGTAGCACGTGCTAGT,-0.18
11,GATTGCACGTGGGTCA,-0.15
12,GTATCCACGTGTGTGA,0.14
13,ACGGTCACGTGAAGTG,0.53
14,TGGATCACGTGCTATG,-0.04
15,TTCTACACGTGAGGTA,0.47
16,ATGTCCACGTGGGCGG,-0.22
17,ATCGGCACGTGTAGGT,-0.05
18,GGTAACACGTGCATGG,0
19,GTGGCCACGTGGTTTC,0
20,TTGATCACGTGGGGGA,-0.08
21,CAAGTCACGTGTCGGG,0.16
22,AATGGCACGTGTGTCA,-0.11
23,GTGTGCACGTGGGGCC,-0.25

row,Sequence,relative binding free energy [kcal/mol]
1,GTATTCACGTGTATGC,0.15
2,GGGGGCACGTGGTCGT,-0.21
3,ATGCTCACGTGGGTTG,-0.01
4,TTATTCACGTGGGCAA,0.12
5,AGGCGCACGTGGGTGA,-0.25
6,AGTGGCACGTGTTCTC,-0.01
7,TATGACACGTGTGTTC,-0.03
8,GTGAACACGTGGTTTA,0
9,ATGATCACGTGGATGT,0.16
10,GTAGTCACGTGTGGCG,0.18
11,TGAAGCACGTGTATGT,-0.01
12,TGAGTCACGTGCAGTT,0.1
13,GATGGCACGTGGGTGA,-0.11
14,TGGGGCACGTGGGAGA,-0.15
15,GTGAACACGTGGAAGT,0.13
16,GGTGACACGTGTTATG,0.12
17,TTTGACACGTGTAAGT,0.02
18,TCTGGCACGTGGGTAG,-0.24
19,TCAAGCACGTGGGAGG,-0.17
20,GGAGGCACGTGAGTCA,0.24
21,ATGCGCACGTGTTTTT,-0.12
22,AAGGTCACGTGAGGAT,0.28
23,TTCGGCACGTGGGGTG,-0.15

row,Sequence,relative binding free energy [kcal/mol]
1,TTTGACACGTGTGCTG,0.01
2,AGGTCCACGTGAAGGT,0.11
3,CCTGTCACGTGGGTTA,-0.04
4,ACATTCACGTGTGTTA,0.26
5,ATGCACACGTGGGTGG,-0.15
6,TACCGCACGTGGGGGG,-0.18
7,CGGAGCACGTGATGGA,0.17
8,ATGTTCACGTGTGACA,0.22
9,GGTTCCACGTGGGTTG,-0.01
10,TAGATCACGTGTGCGG,0.18
11,CTTGTCACGTGGCTTT,0.1
12,TAGGTCACGTGGGGTT,0
13,TTTTTCACGTGTGCAG,0.16
14,TATGTCACGTGGCTTT,-0.09
15,AGAGTCACGTGCTGGT,-0.13
16,GATATCACGTGGGGAG,0.07
17,TATCACACGTGGGTTT,-0.07
18,TGGTTCACGTGGAGGT,0.3
19,CGTGACACGTGGGTGC,-0.06
20,GTCTACACGTGATGTG,0.18
21,GGCCACACGTGGGGGT,-0.06
22,TTATTCACGTGTGTGC,0.15
23,GCAATCACGTGTGGTT,0.28
